Changes are numbered by the printed parent chain.
T1: human IL6R (R and D Systems, Cat No. 227-SR/CF) (human, UniProt P08887 20-358)
T1 construct: Bought protein; also called interleukin 6 receptor
T1 sequence (looked up): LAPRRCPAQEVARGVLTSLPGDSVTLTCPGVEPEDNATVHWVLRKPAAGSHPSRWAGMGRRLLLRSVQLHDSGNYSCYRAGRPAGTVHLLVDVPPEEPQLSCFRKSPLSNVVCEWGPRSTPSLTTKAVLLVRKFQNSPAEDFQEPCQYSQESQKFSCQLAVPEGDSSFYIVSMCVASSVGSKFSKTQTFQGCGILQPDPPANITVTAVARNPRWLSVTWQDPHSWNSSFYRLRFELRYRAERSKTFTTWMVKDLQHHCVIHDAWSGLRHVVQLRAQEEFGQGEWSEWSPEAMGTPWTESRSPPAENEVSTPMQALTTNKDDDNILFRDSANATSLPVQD

B1: 4792^601AV1 (antibody, human IgG1, kappa)
light: QGQSGQYGSCSWNYVHIFMDCGSSGGSGGSGGSAQNLLGMVGGSDIQMTQSPSSLSASVGDRVTITCRASQDISSYLNWYQQKPGKAPKLLIYYTSRLHSGVPSRFSGSGSGTDFTFTISSLQPEDIATYYCQQGNTLPYTFGQGTKVEIKRTVAAPSVFIFPPSDEQLKSGTASVVCLLNNFYPREAKVQWKVDNALQSGNSQESVTEQDSKDSTYSLSSTLTLSKADYEKHKVYACEVTHQGLSSPVTKSFNRGEC
heavy: QVQLQESGPGLVRPSQTLSLTCTVSGYSITSDHAWSWVRQPPGRGLEWIGYISYSGITTYNPSLKSRVTISRDNSKNTLYLQMNSLRAEDTAVYYCARSLARTTAMDYWGQGSLVTVSS[… human IgG1 constant region …]
notes: It was tested as a reaction mixture after incubation in synovial fluid, so it was partly cleaved at the substrate
B2: 4792^3458AV1 (antibody, human IgG1, kappa)
light: B1 light with A34P, Q35V, N36G, L37Y, L38T, G39S, M40S, V41L
heavy: B1 heavy
notes: as for B1
B3: 4792^3457AV1 (antibody, human IgG1, kappa)
light: B1 light with A34S, Q35T, N36F, L37P, L38F, V41F
heavy: B1 heavy
notes: as for B1
B4: 4792^3463AV1 (antibody, human IgG1, kappa)
light: B1 light with A34D, Q35W, N36L, L37Y, L38W, G39P, M40G, V41I
heavy: B1 heavy
notes: as for B1
B5: 4792^559AV1 (antibody, human IgG1, kappa)
light: B1 light with A34Q, Q35N, N36Q, L37A, G39R, V41A
heavy: B1 heavy
notes: as for B1

These binders were tested against T1, human IL6R (R and D Systems, Cat No. …) (assay: ELISA on plate-coated human IL6R; binding of the activatable antibody after incubation in RA synovial fluid, compared to the binding of the parental anti-IL6R antibody).

Activation in SyF [%] | Binder
> 30 | B1
20 | B2
> 50 | B3
> 30 | B4
20 | B5
